# Hit rate of the full screen: of about 310,000 compounds, about 2,200 (0.71%) showed an effect of 50% or more. The effect is printed as a negative number. The list shows a part of the results.
# Target: human ether-à-go-go-related gene (hERG) potassium channel (human, UniProt Q12809)
# Assay: primary screen, population patch clamp on CHO cells stably expressing hERG
# Procedure: Briefly, Chinese hamster ovary (CHO) cells stably expressing the hERG channel were dislodged from tissue culture flasks and dispensed into PPC plates. […] During the recording, background leak currents were estimated by a 100 ms step to -80 mV from an initial holding potential of -70 mV and subtracted from the subsequent current measurement. The campaign was conducted in two phases using slight differences in recording protocol. In the first phase, the initial voltage pulse used a 100 ms step to -30 mV from a holding potential of -70 mV, a 2 s conditioning step to +25 mV, and a 2 s test step to -30 mV. During the second phase of the screen, the potential during the conditioning step was raised to +45 mV. In both phases of the campaign, a secondary voltage pulse was applied using the same parameters as the second phase initial pulse. The initial and secondary pulses were applied in the absence of compound, and upon application of 1 μM and 10 μM test concentrations. Small molecule effects on hERG current density were quantified by […].
# human ether-à-go-go-related gene (hERG) potassium channel, sequence (Q12809 whole entry, looked up): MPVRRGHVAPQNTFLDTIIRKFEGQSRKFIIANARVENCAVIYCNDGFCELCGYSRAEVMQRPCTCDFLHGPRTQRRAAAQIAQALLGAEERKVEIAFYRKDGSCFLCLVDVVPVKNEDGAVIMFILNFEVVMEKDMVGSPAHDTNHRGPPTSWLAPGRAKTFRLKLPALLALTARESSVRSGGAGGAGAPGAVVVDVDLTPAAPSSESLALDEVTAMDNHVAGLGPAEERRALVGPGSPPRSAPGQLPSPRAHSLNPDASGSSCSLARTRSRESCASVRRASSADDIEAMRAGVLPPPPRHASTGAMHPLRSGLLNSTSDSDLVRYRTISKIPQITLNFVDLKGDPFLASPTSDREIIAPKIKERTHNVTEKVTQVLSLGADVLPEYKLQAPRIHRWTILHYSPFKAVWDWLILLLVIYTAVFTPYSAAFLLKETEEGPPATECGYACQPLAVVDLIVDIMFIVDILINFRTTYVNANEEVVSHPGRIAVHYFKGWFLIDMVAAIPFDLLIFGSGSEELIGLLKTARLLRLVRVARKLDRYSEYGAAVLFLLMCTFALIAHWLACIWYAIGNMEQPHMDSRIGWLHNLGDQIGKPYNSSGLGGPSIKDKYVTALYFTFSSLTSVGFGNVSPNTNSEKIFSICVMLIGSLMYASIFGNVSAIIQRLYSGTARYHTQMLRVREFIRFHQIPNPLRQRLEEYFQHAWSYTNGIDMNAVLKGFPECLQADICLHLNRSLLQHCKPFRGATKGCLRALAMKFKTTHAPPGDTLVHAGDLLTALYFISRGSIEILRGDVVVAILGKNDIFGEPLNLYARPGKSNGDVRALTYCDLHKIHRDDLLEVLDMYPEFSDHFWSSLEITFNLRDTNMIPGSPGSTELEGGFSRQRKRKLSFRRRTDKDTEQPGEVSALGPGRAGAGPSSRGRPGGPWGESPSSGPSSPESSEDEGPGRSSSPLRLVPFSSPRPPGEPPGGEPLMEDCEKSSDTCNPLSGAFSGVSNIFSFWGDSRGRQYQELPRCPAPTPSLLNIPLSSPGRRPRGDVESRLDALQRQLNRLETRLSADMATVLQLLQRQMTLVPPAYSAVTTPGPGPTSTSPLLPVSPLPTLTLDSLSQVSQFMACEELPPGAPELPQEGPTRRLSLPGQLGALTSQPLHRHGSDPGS
row,SMILES,"hERG current change (%, negative = inhibition) at 1uM [%]"
1,COc1cccc(CNC(=O)c2n[nH]c3ccccc23)c1,7.33
2,C/C(=N\NC(=O)CNc1cccc(Cl)c1C)c1cccs1,9.86
3,Cc1cc(C)c(SCCc2ccncc2)c(C)c1,17.9
4,CC(=O)c1cccc(NC(=O)CSc2nnc(C(C)N(C)C)n2Cc2ccccc2)c1 (stereo not drawn),3.65
5,CC1CCCCC1NC(=O)CN1CCN(S(=O)(=O)c2ccc(Br)s2)CC1 (stereo not drawn),-1.28
6,CS(=O)(=O)N1CCc2cc(-c3csc(NCC4CCCO4)n3)ccc21 (stereo not drawn),-10.8
7,COc1cccc(NC(=O)Nc2nc(-c3ccc(OC)c(OC)c3)cs2)c1,8.69
8,CC(=O)c1cccc(N(CC(=O)NC2CCCCC2)C(=O)Cn2nnc(-c3ccccc3)n2)c1,4.53
9,COc1ccccc1NC(=S)NNC(=O)c1ccc(Cl)cc1Cl,2.04
10,Cc1nc([N+](=O)[O-])cn1CC(=O)c1ccccc1,8.38
11,Cc1ccc(NC(=O)Nc2ccc(F)cc2)cc1Cl,12.9
12,CC(C)(C)c1ccc(C(=O)NCC(=O)N/N=C/c2ccccc2OCC(=O)O)cc1,5.81
13,CC(C)c1nc(C(=O)N2CCCC(CCC(=O)N(C)CCc3ccccn3)C2)cs1 (stereo not drawn),7.47
14,COc1cc(C(Nc2ccccn2)c2c(NC(=O)c3ccco3)sc(C)c2C)cc(OC)c1OC (stereo not drawn),11.9
15,CCOC(=O)Cc1csc(NC(=O)c2ccc(Br)s2)n1,3.65
16,Cc1c(NC(=O)C(C)Oc2ccc(Br)cc2Cl)c(=O)n(-c2ccccc2)n1C (stereo not drawn),-1.81
17,CCCC(C)C(=O)OCC(=O)Nc1ccc(Br)cc1 (stereo not drawn),15.6
18,CC(/C=N/NC(=O)c1cccc([N+](=O)[O-])c1)=C\c1ccccc1,-1.74
19,COc1ccccc1C(=O)NCCC(=O)Nc1ccncc1,9.89
20,Cc1cccc(NC(=O)CSc2nnc(-c3cc(C)[nH]n3)n2N)c1,-6.53
21,Fc1ccc(N2CCN(c3ccc4c(C(F)(F)F)cc(C(F)(F)F)nc4n3)CC2)cc1,-3.42
22,Cc1ccc(CSc2nc3c(c(N(C)C)n2)CCCC3)cc1,6.28
23,Fc1ccccc1/C=N/Nc1nn[nH]n1,12.3

row,SMILES,"hERG current change (%, negative = inhibition) at 1uM [%]"
1,O=C(CSc1cccc2cccnc12)OCC(=O)c1ccccc1,10.7
2,COc1ccc(NC(=S)N(CCN2CCOCC2)C2CCN(C(C)=O)CC2)cc1Cl,13.5
3,Cc1ccc(-c2nnc(N3CCOCC3)c3ccccc23)cc1S(N)(=O)=O,9.29
4,O=C(NCc1cccnc1)c1ccccc1[N+](=O)[O-],4.95
5,O=c1c(-c2ccccc2)n[nH]c2ccccc12,5.62
6,Cc1ccc(C(=O)N2CC(C)CC(C)C2)cc1S(=O)(=O)N1CCCCC1 (stereo not drawn),-1.96
7,COc1ccc(NC(=O)c2cccs2)cn1,9.61
8,N#C/C(=C\c1ccc(O)cc1)c1nc2ccccc2o1,12.5
9,CC1=CC2=NC(=O)/C(=C/c3cccs3)C(=N)N2O1,15.4
10,CC(=O)Oc1ccc(-n2c(=O)c3ccccc3c3ccccc3c2=O)cc1,5.02
11,c1cnc(Oc2ccc(-c3nnco3)cc2)cn1,15.2
12,Cn1c(N)c(C(=O)N/N=C/c2ccccc2)sc1=S,17.7
13,CCCc1nc2ccccc2c(=O)n1NC(=O)c1c(O)c2ccccc2n(C)c1=O,13.4
14,CCOC(=O)Cn1c(=O)n(CC(=O)OCC)c2ccccc21,8.05
15,Cc1ccc(NC(=O)CSCC(=O)O)cc1,13.4
16,O=C(NCCCN1CCCCC1)c1ccc2c(c1)NC(=O)C(N1CCCCC1)S2 (stereo not drawn),11.5
17,COc1ccc(NC(=O)CS(=O)(=O)c2cn(CC(=O)N(C(C)C)C(C)C)c3ccccc23)c(OC)c1,0.846
18,Cc1ccc(C2(C)NC(=O)N(CC(=O)NCc3ccccc3Cl)C2=O)cc1 (stereo not drawn),15.4
19,CC(=O)c1cccc(Nc2nc(=O)c3cccnc3s2)c1,3.65
20,CC(C)Oc1ccc(S(=O)(=O)N2CCCCC2)cc1NC(=O)CN1C(=O)NC(C)(C2CC2)C1=O (stereo not drawn),-1.38
21,Cc1ccc(S(=O)(=O)N2CCN(C(=O)CC(C)(C)C)CC2)cc1,16.1
22,O=C(O)COCC(=O)Nc1ccc2c(c1)oc1ccccc12,15.3

# Source: article PMC4336329 (PLoS ONE, 2015)
